Source: PubChem BioAssay (Tox21)
“And” between values parts separate entries of the source, which are not always exact repeats. Equal entries are not always repeated. This list was built around the results that the source calls inconclusive (neither active nor inactive); the mix of calls is not that of the screen. Potencies beside an inconclusive call are fits to weak or partial responses and may not hold up. Where a structure was tested more than once in an assay, its records may differ in their call. The source made the active and inactive calls. Calls follow the shape of the dose curve; as a rule, active = well fitted cell-killing curve with a large enough effect in the repeat runs; inconclusive = weak or mixed curves; inactive = flat fitted curve, though single readings scatter.

Assay: qHTS assay to identify small molecule antagonists of the estrogen receptor beta (ER-beta) signaling pathway - cell viability counter screen (AID 1259382); also: nearly all actives have a fitted effect of over 55% in size
Conditions: ER-beta-UAS-bla HEK293T viability, CellTiter-Glo luminescence, 16 h; series mostly up to 92.4 µM
Text: U.S. Tox21 Program National Center for Advancing Translational Sciences [NCATS] NIH Chemical Genomics Center [NCGC] U.S. Environmental Protection Agency [EPA] National Institutes of Environmental Health Sciences [NIEHS] National Toxicology Program [NTP] U.S. Food and Drug Administration [FDA] Tox21 Assay Overview: Estrogen receptor (ER), a nuclear hormone receptor, plays an important role in development, metabolic homeostasis and reproduction. Two subtypes of ER, ER-alpha and ER-beta, have similar expression patterns with some uniqueness in both types. Endocrine disrupting chemicals (EDCs) and their interactions with steroid hormone receptors like ER causes disruption of normal endocrine function. To identify the compounds that inhibit ER signaling, an ER-beta-UAS-bla GripTite cell line (Life Technologies, Madison, WI, USA) containing a beta-lactamase reporter gene under the control of an UAS response element was used to screen Tox21 10K compound library. The cytotoxicity of the Tox21 compound library against the ER-beta-bla cell line was tested in parallel by measuring the cell viability using CellTiter-Glo assay in the same wells.
Tox21 Assay Protocol Summary: ER-beta-UAS-bla HEK293T cells were dispensed at 2,000 cells/4 uL of assay medium containing 2% charcoal stripped FBS per well into black wall/clear-bottom 1536-well plates using a Multidrop Combi (ThermoFisher Scientific, Waltham, MA) dispenser. After the assay plates were incubated at a 37C and 5% CO2 for 6 hr, 23 nL of compounds dissolved in DMSO, positive controls or DMSO only was transferred to the assay plate by a Pintool station (Kalypsys, San Diego, CA), followed by addition of 1 uL (1nM as final concentration) of 17-beta-estradiol (E2) in assay medium using a Flying Reagent Dispenser (FRD, Aurora Discovery, San Diego, CA). The plates were incubated at 37C and 5% CO2 for 16 hr. Then 1 uL of LiveBLAzer B/G FRET substrate was added using a Flying Reagent Dispenser, the plates were incubated at room temperature for 2 hours, and fluorescence intensity was measured by an Envision plate reader (PerkinElmer, Shelton, CT). For cell viability readout that measures cytotoxicity, 4 uL/well of CellTiter-Glo reagent was added into the assay plates using a FRD. After 30 min incubation at room temperature, the luminescence intensity in the plates was measured using a ViewLux (PerkinElmer) plate reader.
Potency is read from the fitted curve at half-maximal effect; tags tell the direction and shape of the fitted curve.

| Structure (SMILES) | Potency |
| --- | --- |
| CC(CC(C#N)(c1ccccc1)c1ccccc1)N(C)C (stereo not given) | inconclusive: 68.2 µM [cytotoxic, single point] |
| O=c1oc2ccccc2c(O)c1Cc1c(O)c2ccccc2oc1=O | inconclusive: 6.68 µM [cytotoxic, full curve] |
| CCOP(=S)(NC(C)C)Oc1ccccc1C(=O)OC(C)C (stereo not given) | inconclusive: 3.44 µM [cytotoxic, full curve] |
| O=Cc1ccc(Cl)cc1Cl | inactive |
| Nc1ccc(-c2ccc(N)c(Cl)c2)cc1Cl | inconclusive: 19.4 µM [cytotoxic, full curve] and inconclusive: 22.7 µM [cytotoxic, full curve] |
| CCCCOC(=O)CCC(=O)OCCCC | inactive |
| O=S(=O)(O)O | inactive |
| O=C=Nc1ccc(Cl)cc1 | inconclusive: 3.44 µM [cytotoxic, full curve, poor fit] |
| C=CCOC(Cn1ccnc1)c1ccc(Cl)cc1Cl (stereo not given) | inconclusive: 27.3 µM [cytotoxic, partial curve] |
| C/C=C/c1ccc2c(c1)OCO2 | inconclusive: 69.9 µM [rising, partial curve, poor fit] |
| O=C(O)c1ccccn1 | inactive |
| COP(=O)(OC)OC | inactive |
| CN(C)c1ccc(N(C)C)cc1 | inconclusive: 68.8 µM [cytotoxic, single point] |
| O=[N+]([O-])c1c2ccccc2cc2ccccc12 | inconclusive: 67.8 µM [cytotoxic, single point] |
| O=C1C(=O)c2cccc3cccc1c23 | inactive |
| Nc1cc(Cl)ccc1Cl | inactive |
| CCCCN(CCCC)C(=S)[S-].CCCCN(CCCC)C(=S)[S-].[Zn+2] | active: 30.6 µM |
| CC(C)(C)C(O)C(Oc1ccc(-c2ccccc2)cc1)n1cncn1 (stereo not given) | inconclusive: 77 µM [cytotoxic, single point] |
| Cc1ccccc1C(=O)Nc1cccc(OC(C)C)c1 | inconclusive: 21.7 µM [cytotoxic, full curve] |
| CCC(=O)C(CC(C)N(C)C)(c1ccccc1)c1ccccc1 (stereo not given) | inconclusive: 54.7 µM [cytotoxic, single point] and inconclusive: 68.1 µM [cytotoxic, single point] |

| Structure (SMILES) | Potency |
| --- | --- |
| O=[N+]([O-])c1ccccc1CCl | inactive |
| O=[N+]([O-])O.O=[N+]([O-])O.[Cd] | active: 54.5 µM |
| Nc1ccc(-c2ccc(N)cc2)cc1 | inconclusive: 15.2 µM [cytotoxic, full curve] |
| CCC[N+](=O)[O-] | active: 23.9 µM |
| COc1ccc(N)cc1N | inconclusive: 26.2 µM [cytotoxic, partial curve] |
| N#CCc1ccccc1 | inactive |
| CC(C)(C)C(=O)C(Oc1ccc(Cl)cc1)n1cncn1 (stereo not given) | inactive |
| COC(=O)Nc1nc2ccccc2[nH]1 | inactive |
| O=C1NCN(c2ccccc2)C12CCN(CCCOc1ccc(F)cc1)CC2 | inconclusive: 23.7 µM [cytotoxic, partial curve] |
| c1ccc2c(c1)Nc1ccccc1S2 | inconclusive: 61.1 µM [cytotoxic, partial curve, poor fit] |
| O=C(CCl)c1ccccc1 | inactive |
| CN(C)C(=O)Oc1cc(OC(=O)N(C)C)cc(C(O)CNC(C)(C)C)c1 (stereo not given) | inactive |
| c1ccc(N=NNc2ccccc2)cc1 | inconclusive: 12.2 µM [cytotoxic, full curve] |
| COC(=O)N(OC)c1ccccc1COc1ccn(-c2ccc(Cl)cc2)n1 | inactive |
| BrCC(Br)c1ccccc1 (stereo not given) | inactive |
| C=C(C)C#N | inactive |
| COC(=O)C(C)N(C(=O)Cc1ccccc1)c1c(C)cccc1C (stereo not given) | inconclusive: 68.6 µM [cytotoxic, partial curve] |
| CCOCN(C(=O)CCl)c1c(C)cccc1CC | inconclusive: 28.9 µM [cytotoxic, full curve] and inconclusive: 43.3 µM [cytotoxic, partial curve] |
| CCOC(=S)S | inconclusive: 8.63 µM [cytotoxic, full curve] and inconclusive: 8.19 µM [cytotoxic, full curve] |
| Nc1ccc([N+](=O)[O-])cc1N | inconclusive: 17.2 µM [cytotoxic, full curve] |
